In article PMC4336329 (PLoS ONE, 2015):
Hit rate of the full screen: of about 310,000 compounds, about 14,000 (4.5%) showed an effect of 50% or more. The effect is printed as a negative number. Some of the results follow.

Target: human ether-à-go-go-related gene (hERG) potassium channel (human, UniProt Q12809)
Experiment: primary screen, population patch clamp on CHO cells stably expressing hERG
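Note: peak tail current of the secondary pulse compared with the same well before compound.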

Chain of human ether-à-go-go-related gene (hERG) potassium channel (Q12809 whole entry, looked up): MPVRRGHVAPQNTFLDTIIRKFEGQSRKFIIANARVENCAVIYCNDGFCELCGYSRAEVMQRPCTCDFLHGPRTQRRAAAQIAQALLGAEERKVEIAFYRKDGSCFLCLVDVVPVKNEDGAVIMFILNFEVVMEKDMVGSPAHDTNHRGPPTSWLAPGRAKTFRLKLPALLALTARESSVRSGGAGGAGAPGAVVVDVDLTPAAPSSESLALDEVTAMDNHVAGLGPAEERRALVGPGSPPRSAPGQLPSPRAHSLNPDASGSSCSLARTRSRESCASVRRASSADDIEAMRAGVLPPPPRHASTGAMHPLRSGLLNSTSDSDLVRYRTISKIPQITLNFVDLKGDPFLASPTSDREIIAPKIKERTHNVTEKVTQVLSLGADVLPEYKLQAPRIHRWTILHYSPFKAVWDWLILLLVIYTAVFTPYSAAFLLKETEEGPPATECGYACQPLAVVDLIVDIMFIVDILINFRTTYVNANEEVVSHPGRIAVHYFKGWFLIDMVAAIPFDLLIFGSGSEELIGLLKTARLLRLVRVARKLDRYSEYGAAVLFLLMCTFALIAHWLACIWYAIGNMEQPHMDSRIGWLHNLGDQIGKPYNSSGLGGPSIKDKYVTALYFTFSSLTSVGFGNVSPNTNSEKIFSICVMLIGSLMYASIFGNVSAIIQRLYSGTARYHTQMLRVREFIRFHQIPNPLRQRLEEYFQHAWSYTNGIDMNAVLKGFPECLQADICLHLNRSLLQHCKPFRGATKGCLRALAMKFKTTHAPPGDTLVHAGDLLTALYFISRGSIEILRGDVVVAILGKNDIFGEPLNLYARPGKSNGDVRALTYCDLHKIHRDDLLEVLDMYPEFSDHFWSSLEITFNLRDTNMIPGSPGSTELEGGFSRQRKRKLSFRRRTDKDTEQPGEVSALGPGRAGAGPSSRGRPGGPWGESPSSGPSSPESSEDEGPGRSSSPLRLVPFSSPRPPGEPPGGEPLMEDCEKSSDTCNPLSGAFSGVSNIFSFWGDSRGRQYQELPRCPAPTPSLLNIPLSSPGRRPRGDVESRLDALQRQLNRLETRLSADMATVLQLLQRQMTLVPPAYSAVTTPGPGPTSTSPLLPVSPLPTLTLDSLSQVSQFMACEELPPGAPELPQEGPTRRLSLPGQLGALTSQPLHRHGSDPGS

Going from `COc1cc(C2C3C(=O)N(Cc4ccccc4)C(=O)C3ON2c2ccccc2)cc(OC)c1O` (stereo not drawn) to `COc1ccc(NC(=O)CNC(=O)Cn2c(C)cc3ccccc3c2=O)c(OC)c1`, the “hERG current change (%, negative = inhibition) at 10uM” value falls from -17% to -28.2%.

Compared with `CCc1ccc2oc(-c3cccc(N)c3)nc2c1`, `COc1ccc(-c2nc3c(Br)c(N)c(Br)cc3o2)cc1` is higher in “hERG current change (%, negative = inhibition) at 10uM” value: 6.25% for the first, 7.14% for the second.

Compared with `Cc1ccccc1N1CC(c2nc3ccccc3[nH]2)CC1=O` (stereo not drawn), `Cc1ccc(-n2c(-c3ccccc3)c[n+]3c2CCc2ccccc2-3)c(C)c1.[Br-]` is lower in “hERG current change (%, negative = inhibition) at 10uM” value: 12.5% for the first, -93% for the second.

First: Cc1ccccc1NS(=O)(=O)c1cc(C(=O)N2CCc3ccccc3C2)ccc1C
Second: O=C(c1ccncc1)N1CCN(S(=O)(=O)c2ccc3ccccc3c2)CC1
The “hERG current change (%, negative = inhibition) at 10uM” value of the first is higher: 6.67% for the first, -6.39% for the second.

Compared with `COc1ccccc1C(O)P(=O)(OC(C)C)c1ccc(N(C)C)cc1` (stereo not drawn), `CC(C(=O)c1ccc(Br)cc1)[n+]1cccc(NC(=O)c2ccccc2)c1` (stereo not drawn) is lower in “hERG current change (%, negative = inhibition) at 10uM” value: -10.6% for the first, -38.2% for the second.

Going from `Cc1csc(NC(C)c2nc3cc(C(F)(F)F)ccc3n2CCOCCO)n1` (stereo not drawn) to `CCOC(CNC(=O)c1ccc2c(c1)ncn2-c1ccc(F)c(F)c1)OCC`, the “hERG current change (%, negative = inhibition) at 10uM” value rises from -38.8% to -19.8%.

Compared with `COc1cc(NC(=O)[C@H]2CCCN2S(=O)(=O)c2cccc3cccnc23)cc(OC)c1OC`, `COc1ccc(NC(=O)c2ccc(-c3ccc([N+](=O)[O-])cc3)o2)cc1OC` is lower in “hERG current change (%, negative = inhibition) at 10uM” value: 0.0494% for the first, -64.9% for the second.

Going from `CNC(=O)CSc1nnc(NC(=O)C2CC(=O)N(c3ccccc3OC)C2)s1` (stereo not drawn) to `COc1ccccc1CC(=O)Nc1cccc(C(=O)Nc2nccs2)c1`, the “hERG current change (%, negative = inhibition) at 10uM” value falls from 16.4% to -0.755%.

First: C#CCOc1ccc(/C=C2/C(=O)ON=C2C)cc1OCC
Second: CCn1c(-c2ccccc2SC)n[nH]c1=S
The “hERG current change (%, negative = inhibition) at 10uM” value of the first is higher: 20.1% for the first, 11.3% for the second.

Going from `CCOc1ccc(C(=O)NCC(=O)OCC(=O)Nc2ccc(C)c(S(=O)(=O)N(C)C)c2)cc1` to `COc1ccc2c(c1)c(CC(=O)Nc1cccc(S(N)(=O)=O)c1)c(C)n2C(=O)c1ccc(Cl)cc1`, the “hERG current change (%, negative = inhibition) at 10uM” value rises from -30% to 1.02%.

First: CC(=O)C1=C(O)C(=O)N(c2ccc(Br)cn2)C1c1cccc([N+](=O)[O-])c1 (stereo not drawn)
Second: CSc1ncccc1C(=O)OCc1ccc([N+](=O)[O-])cc1
The “hERG current change (%, negative = inhibition) at 10uM” value of the first is higher: 16.3% for the first, 6.39% for the second.

First: CC(C)(C)c1ccc(CN2N=C(/C=C/c3ccccc3)CCC2=O)cc1
Second: Cc1ccc(F)c(NC(=O)/C(C#N)=C(\O)c2ccc(C(C)(C)C)cc2)c1
The “hERG current change (%, negative = inhibition) at 10uM” value of the first is higher: 19.2% for the first, 15.9% for the second.

Compared with `C=CCN1C(=S)N[C@@H]2CS(=O)(=O)C[C@@H]21`, `O=S1(=O)CCS(=O)(=O)C1c1ccccc1` is higher in “hERG current change (%, negative = inhibition) at 10uM” value: -6.08% for the first, -1.95% for the second.

Compared with `CC(=O)c1ccc(S(=O)(=O)N2CCN(C(=O)C3CCCC3)CC2)cc1`, `CC(=O)c1ccc(NC(=S)N2CCCCCC2)cc1` is lower in “hERG current change (%, negative = inhibition) at 10uM” value: 2.11% for the first, -3.56% for the second.

First: COc1ccc(NC(=O)NNC(=O)C(O)(c2ccccc2)c2ccccc2)cc1
Second: Cc1ccc(NC(=O)/C(=C/C=C/c2ccccc2)NC(=O)c2ccccc2)cc1
The “hERG current change (%, negative = inhibition) at 10uM” value of the first is lower: -9.41% for the first, -2.74% for the second.

Compared with `Cc1ccc(-c2nc3ccccc3s2)cc1NC(=O)c1cc(-n2cnnc2)ccc1Cl`, `O=C(Nc1ccc(Cl)c(S(=O)(=O)N2CCOCC2)c1)c1ccccc1-c1ccc(C(F)(F)F)cc1` is higher in “hERG current change (%, negative = inhibition) at 10uM” value: -4.7% for the first, -1.69% for the second.

Compared with `CC(C)=C1C2CCC1C1C(=O)N(NC(=O)COc3ccc(Cl)c(C)c3)C(=O)C21` (stereo not drawn), `CCn1c(=O)c(C(=O)CN2CCN(S(=O)(=O)c3ccc(C)cc3C)CC2)c(N)n(Cc2ccccc2)c1=O` is lower in “hERG current change (%, negative = inhibition) at 10uM” value: -18.7% for the first, -21.2% for the second.

Compared with `O=C(COc1ccccc1Cl)N1CCN(c2ccc(F)cc2)CC1`, `CNC(=O)COc1ccccc1C(=O)Nc1ccc2c(c1)oc1ccccc12` is higher in “hERG current change (%, negative = inhibition) at 10uM” value: -6.04% for the first, 13.7% for the second.

Going from `CN(C(=O)C1CCCO1)c1nnc(-c2ccccn2)s1` (stereo not drawn) to `Cc1ccc(C(=O)N/N=C\c2ccccn2)cn1`, the “hERG current change (%, negative = inhibition) at 10uM” value rises from 3.15% to 6.09%.

Going from `CC(C)OC(=O)CSc1ncnc2c1cnn2-c1ccccc1` to `CCNC(=O)NC(=O)C(C)N1C(=O)NC(c2ccccc2)(c2ccccc2)C1=O` (stereo not drawn), the “hERG current change (%, negative = inhibition) at 10uM” value falls from 12.6% to -43.6%.

Compared with `O=C(N/N=C/c1ccccn1)c1cccc(NC(=O)c2ccccc2Cl)c1`, `C/C(=N/NC(=O)c1cccc(N2CCCC2=O)c1)c1ccncc1` is higher in “hERG current change (%, negative = inhibition) at 10uM” value: -4.9% for the first, 13% for the second.

First: O=[N+]([O-])c1cc(CN2CCCCCC2)ccc1O
Second: O=C(NC1CCCCC1)N1CCC(c2nc3ccc(Cl)cc3[nH]2)CC1
The “hERG current change (%, negative = inhibition) at 10uM” value of the first is higher: 9.47% for the first, -34.3% for the second.

Compared with `Cc1sc(Nc2ccc([N+](=O)[O-])cc2)nc1-c1c(C)n(C)n(-c2ccccc2)c1=O`, `Cc1ccc(S(=O)(=O)N/N=C/c2ccccc2O)cc1` is higher in “hERG current change (%, negative = inhibition) at 10uM” value: -34.3% for the first, 12.9% for the second.

First: CCOC(=O)C1CCN(C(=O)C2CCN(S(=O)(=O)c3cccc4nsnc34)CC2)CC1
Second: CCN1CCN(C(=O)C2c3cc(OC)c(OC)cc3C(=O)N3CCc4ccccc4C23)CC1 (stereo not drawn)
The “hERG current change (%, negative = inhibition) at 10uM” value of the first is lower: -16.1% for the first, 4.31% for the second.

Going from `O=C(CCCCCCC(=O)NCc1ccccc1)NCc1ccccc1` to `CC(=O)Nc1ccc(NC(=O)CSc2ccc(-c3cccs3)nn2)cc1`, the “hERG current change (%, negative = inhibition) at 10uM” value rises from 10.6% to 11.4%.

Going from `C[N+]1([O-])[C@@H]2Cc3cc4c(cc3[C@@H]1Cc1cc3c(cc12)OCO3)OCO4` (stereo partly drawn) to `O=C(NNc1cc(Cl)cc(Cl)c1)C1CCC1`, the “hERG current change (%, negative = inhibition) at 10uM” value rises from 0.536% to 21.9%.

Going from `COc1ccc(OCCn2nnc(-c3ccc(Cl)cc3)n2)cc1` to `CCOc1cc(C)c(Cl)cc1S(=O)(=O)NC1CC(C)(C)NC(C)(C)C1`, the “hERG current change (%, negative = inhibition) at 10uM” value falls from 9.66% to 4.78%.
